# Hit rate of the full screen: of about 310,000 compounds, about 2,200 (0.71%) showed an effect of 50% or more. The effect is printed as a negative number. This is one part of the list.
# Molecular target: human ether-à-go-go-related gene (hERG) potassium channel (human, UniProt Q12809)
# Experiment: primary screen, population patch clamp on CHO cells stably expressing hERG
# Sequence of human ether-à-go-go-related gene (hERG) potassium channel (Q12809 whole entry, looked up): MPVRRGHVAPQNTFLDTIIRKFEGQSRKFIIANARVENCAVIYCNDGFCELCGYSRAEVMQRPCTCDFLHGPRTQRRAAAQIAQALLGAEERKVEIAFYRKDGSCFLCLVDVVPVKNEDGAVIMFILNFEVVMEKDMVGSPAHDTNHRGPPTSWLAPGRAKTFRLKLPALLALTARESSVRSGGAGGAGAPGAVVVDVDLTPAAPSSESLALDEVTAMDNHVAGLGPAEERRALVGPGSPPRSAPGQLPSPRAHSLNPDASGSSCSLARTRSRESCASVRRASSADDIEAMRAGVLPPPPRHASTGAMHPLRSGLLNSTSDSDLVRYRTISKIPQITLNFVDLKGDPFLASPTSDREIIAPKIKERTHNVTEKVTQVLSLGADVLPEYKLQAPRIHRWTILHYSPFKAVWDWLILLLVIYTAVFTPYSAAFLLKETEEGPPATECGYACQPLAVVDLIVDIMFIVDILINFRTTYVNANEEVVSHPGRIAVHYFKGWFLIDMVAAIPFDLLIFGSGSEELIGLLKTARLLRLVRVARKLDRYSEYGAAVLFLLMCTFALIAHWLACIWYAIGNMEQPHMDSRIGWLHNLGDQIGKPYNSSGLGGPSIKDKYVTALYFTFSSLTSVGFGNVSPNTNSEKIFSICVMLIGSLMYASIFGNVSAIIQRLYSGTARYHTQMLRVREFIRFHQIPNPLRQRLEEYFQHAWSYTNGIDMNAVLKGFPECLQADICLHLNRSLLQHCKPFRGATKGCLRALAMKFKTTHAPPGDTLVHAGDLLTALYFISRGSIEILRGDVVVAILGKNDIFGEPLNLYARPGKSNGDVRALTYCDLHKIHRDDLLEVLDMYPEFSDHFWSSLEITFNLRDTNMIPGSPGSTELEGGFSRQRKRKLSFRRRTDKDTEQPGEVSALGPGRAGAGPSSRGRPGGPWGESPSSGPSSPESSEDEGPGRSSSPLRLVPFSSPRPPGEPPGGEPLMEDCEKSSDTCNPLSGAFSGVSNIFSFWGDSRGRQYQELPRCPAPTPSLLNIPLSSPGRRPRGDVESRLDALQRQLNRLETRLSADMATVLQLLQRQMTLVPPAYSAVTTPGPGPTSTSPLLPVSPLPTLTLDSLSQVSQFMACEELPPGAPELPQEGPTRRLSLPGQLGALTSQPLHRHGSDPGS
row,SMILES,"hERG current change (%, negative = inhibition) at 1uM"
1,O=c1cc(N2CCN(Cc3ccccc3)CC2)[nH]c(=O)n1-c1cccc(C(F)(F)F)c1,9.84%
2,Cc1nn(C(C)C(=O)NCc2ccco2)c(=O)c2nn(-c3ccccc3)c(C)c12 (centres unmarked),6.66%
3,CC(=O)N1CC(=O)N(Cc2ccccc2)/C(=C/c2ccccc2)C1=O,17.1%
4,C=CCOc1c(Cl)cc(C2NC(=O)NC(C)=C2C(=O)OC)cc1Cl (centres unmarked),0.4%
5,Cc1nc2ccc(NC(=O)C3CCN(S(=O)(=O)c4cccs4)CC3)cc2s1,7.35%
6,CCCCNC(=O)N(O)C1N(CCCC)C(=O)N(CC(=O)OC)C1(C)C (centres unmarked),19.3%
7,COc1ccc(S(=O)(=O)N2CCN(C(=O)c3ccco3)CC2)c(C)c1C,10.9%
8,CCOC(=O)C1CCCN(C(=O)C2CC(=O)N(c3ccc(C)cc3)C2)C1 (centres unmarked),8.97%
9,Cc1ccccc1OCC(=O)O/N=C(\N)Cc1ccc(Cl)cc1,14%
10,Cc1cccc(OCCCC(=O)NC2CCCCC2)c1,11.5%
11,CCOc1ccccc1/C=N/NC(=O)c1ccc(Cn2cc([N+](=O)[O-])cn2)o1,-2.54%
12,CS(=O)(=O)N1CCN(c2ccccc2NC(=O)c2cc3ccccc3o2)CC1,4.82%
13,COC(=O)c1ccccc1S(=O)(=O)N(Cc1cc2cc3c(cc2[nH]c1=O)OCO3)C1CCCCC1,4.54%
14,CN1CCc2nc(SCc3ccccc3Br)c(C#N)cc2C1,1.82%
15,COC(=O)c1ccc(C(=O)OC)c(NC(=O)CN(c2ccc3c(c2)OCO3)S(C)(=O)=O)c1,-1.42%
16,O=C(Nc1nc2ccc([N+](=O)[O-])cc2s1)c1ccncc1,0.0256%
17,Cc1ccc(NC(=O)c2noc3c2CCc2ccccc2-3)cc1,11.5%
18,O=C(Nc1ccc2c(c1)OCO2)C1CCCN(c2nc3ccccc3s2)C1 (centres unmarked),-0.341%
19,N#Cc1nc(COc2cccc(Cl)c2)oc1N1CCN(c2ccccc2)CC1,3.52%
20,O=C(CCNc1cccc(Cl)c1)c1cccs1,2.97%
21,Cc1cc(C)c(NS(=O)(=O)c2ccc(NC(=O)CCC(=O)O)cc2)c(C)c1,11.6%
22,CCOc1ccccc1CN1C(=O)c2ccccc2C1C(=O)NC(C)CC (centres unmarked),3.49%
23,Nc1cccnc1Sc1cc(Cl)c(Cl)cc1Cl,12.9%
24,COCCCNC(=O)C1CCN(c2ccc(N3CCOCC3)nn2)CC1,10.3%
25,CC(=O)c1ccc(S(=O)(=O)NCCC(=O)OCC(=O)N2CCCC2=O)cc1,7.46%
26,CN(C(=O)c1cc2c(s1)-c1ccccc1S(=O)(=O)C2)c1ccccc1,5.76%
27,O=C(Nc1nnc(-c2ccc(F)cc2)o1)c1cc(Cl)sc1Cl,12.2%

row,SMILES,"hERG current change (%, negative = inhibition) at 1uM"
1,Cc1ccc(C(=O)O)cc1NC(=O)CCc1ccccc1,15.3%
2,COc1cccc(OCc2cc(/C=N/NC(=O)c3nc(Cl)c(Cl)c(N)c3Cl)ccc2OC)c1,15.3%
3,COc1ccc(Br)c(C(=O)OCC(=O)NC2CC2)c1,4.17%
4,CCn1cc(C(=O)NCCCOC(C)C)c(=O)c2cc(S(=O)(=O)N3CCC(C)CC3)ccc21,18.5%
5,Cc1cccn2c(=O)c(/C=N/O)c(Nc3ccccc3F)nc12,5.49%
6,CSCCC(NS(=O)(=O)c1ccc2c(c1)oc(=O)n2C)C(=O)NCc1ccc(C)cc1 (centres unmarked),8.74%
7,CCOC(=O)c1nnn(-c2nc(N3CCCC3)nc(N3CCCC3)n2)c1-c1ccccc1,1.47%
8,CCC1Nc2ncnc(N3CCN(c4ccccc4)CC3)c2N(Cc2ccc(Br)cc2)C1=O.O=C(O)C(F)(F)F (centres unmarked),8.24%
9,COc1ccc(CN(C(=O)COc2ccc(C)c(C)c2)C2CCS(=O)(=O)C2)cc1OC (centres unmarked),5.77%
10,CN(C)CCC#CC1(O)c2ccccc2-c2ccccc21,14.1%
11,CCN(CC)C(=O)c1[nH]cnc1C(=O)Nc1cccc(Cl)c1,12.2%
12,COc1ccccc1C1(O)C(=O)Nc2ccc(C)cc21 (centres unmarked),13.2%
13,O=C(N/N=C/c1c[nH]c2ccccc12)c1cc(-c2cccc3ccccc23)n[nH]1,6.57%
14,C/C(CC(=O)Nc1cccc2c1CCCC2)=N\NC(=O)c1cccc2ccccc12,15.2%
15,COC(=O)c1ccc(NC(=O)C(=O)N2CCN(C(=S)NCCc3ccccc3)CC2)cc1,-2.93%
16,COc1ccc(N2CCN(C(c3cc4ccc(C)cc4[nH]c3=O)c3nnnn3C3CCCC3)CC2)cc1 (centres unmarked),3.09%
17,COC(=O)C/C=C/[C@@H](C)[C@@H](/C=N/O[C@@H](C)c1cn([C@H](CO)Cc2ccccc2)nn1)NS(=O)(=O)c1ccc(C)cc1,3.68%
18,COc1ccc(CCNC(=O)c2c(-c3ccccc3Cl)noc2C)cc1,16.9%
19,CCOCCCNC(=O)c1c(C)c(C(=O)OCC)n(C)c1C,11.5%
20,CC(Oc1ccc(Cl)cc1Cl)C(=O)Nc1ccc(N2CCN(C)CC2)cc1 (centres unmarked),0.566%
21,O=C(CSc1nc2scc(-c3ccccc3)c2c(=O)[nH]1)N1CCOCC1,8.08%
22,O=C1C(Nc2ccccc2)=C/C(=N/S(=O)(=O)c2cccs2)c2ccccc21,10.9%
23,C=CCOc1ccccc1CN1CCC(Oc2ccc(C(=O)N3CCCCC3)cc2)CC1,-3.91%
24,COc1ccc(NC(=O)N2C[C@@H]3C[C@@H](C2)c2cccc(=O)n2C3)c(OC)c1,-8.09%
25,COc1ccc(CC(=O)Nc2ccc(N3CCN(c4ccc(OC)cc4)CC3)c(C#N)c2)cc1,11.6%
26,COCOc1cc(O)c(C(=O)/C=C/c2ccccc2)c(OCOC)c1,11.2%
